According to PubChem BioAssay AID686979 (National Center for Advancing Translational Sciences (NCATS), 2013):
Among all 420,000 compounds or so, about 50,000 (12%) were called active. This list was built around the results that the source calls inconclusive (neither active nor inactive); the mix of calls is not that of the screen. Calls follow the shape of the dose curve; as a rule, active = well fitted inhibition curve with a large enough effect; inconclusive = small, poorly fitted or top-dose-only effect; inactive = flat fitted curve, though single readings scatter. Potencies of inconclusive entries are left out as doubtful fits.
% is scaled to controls: 0 for no effect and ±100 for the full control effect; potency is read from the fitted curve at half-maximal effect; tags tell the direction and shape of the fitted curve.

Experiment: qHTS for Inhibitors of human tyrosyl-DNA phosphodiesterase 1 (TDP1): qHTS in cells in presence of CPT; also: nearly all actives have a fitted effect of over 55% in size
Conditions: chicken DT40 Tdp1-/-;hTDP1 cells + 20 nM CPT, ATP luminescence, 48 h; activity change, negative = growth inhibition: at 46.2 µM (top of the series) unless noted
Procedure, shortened: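 Cell growth measured by CellTiter-Glo luminescence after a minimum 48 h, 37 C compound exposure with 20 nM CPT in Tdp1-knockout DT40 cells stably expressing hTDP1, seeded 400/well; qHTS titration format.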
In the case of CCOC(=O)C1=C(C)NC(=O)NC1c1c(OCC(=O)N2CCCCC2)ccc2ccccc12 (stereo unspecified), the Potency was inconclusive [inhibitor, single point]. With Cc1ccc(NS(=O)(=O)c2cc([N+](=O)[O-])ccc2NNC(=S)Nc2cccc(Cl)c2)c(C)c1 the Potency was inconclusive [inhibitor, single point]. With COc1cc(/C=c2\sc3n(c2=O)C(c2ccccc2)C(c2ccccc2)=NN=3)ccc1O (stereo unspecified) the Potency was inconclusive [inhibitor, single point]. In the case of FC(F)(F)c1cnc2c(c1)Nc1ccccc1S2, the Potency was inconclusive [inhibitor, single point]. In the case of Fc1ccc(CNc2ncnc3c2cnn3-c2ccccc2)cc1, the Potency was inconclusive [inhibitor, partial curve]. For Cc1n[nH]c(C)c1Cc1c(F)cccc1Cl, the Potency was inconclusive [inhibitor, single point]. For CC1CCCN(c2cc3c(cc2F)c(=O)c(S(=O)(=O)c2cccc(Cl)c2)cn3C)C1 (stereo unspecified), the Potency was inconclusive [inhibitor, single point]. With c1ccc2c(c1)nc1n2C2(N3CCOCC3)CCCC2C1N1CCOCC1 (stereo unspecified) the Potency was “inactive”. In the case of CCN(C(=O)CCCCC(=O)N(CC)c1ccccc1)c1ccccc1, the Potency was inconclusive [inhibitor, single point]. With CC(=O)N1CCC2(CC1)CCN(c1cccc(-c3ccccc3)c1)CC2 the Potency was inconclusive [inhibitor, single point]. With COc1ccc(Cn2nnnc2C(C(C)C)N(Cc2ccco2)Cc2cccs2)cc1 (stereo unspecified) the Potency was inconclusive [inhibitor, single point]. In the case of CC(=O)N1CC=CC1(CC(C)C)C(=O)NCCc1c[nH]c2ccccc12 (stereo unspecified), the Potency was inconclusive [inhibitor, partial curve, poor fit]. In the case of COc1ccc(C(=O)C2CCCN(C/C=C/c3ccccc3OC)C2)c(OC)c1 (stereo unspecified), the Potency was active: 20.6 µM. In the case of COc1cccc(/C=N/NC(=O)c2ccc(COc3ccc(Cl)cc3Cl)o2)c1, the Potency was “inactive”. In the case of CCOC(=O)N1CCC(NC(=O)CS(=O)Cc2nc(-c3ccccc3C)oc2C)CC1 (stereo unspecified), the Potency was inconclusive [inhibitor, single point]. With COc1ccc([C@H]2CC(=O)C=C(c3ccc(CNC(=O)OC(C)(C)C)cc3)C2)cc1 the Potency was inconclusive [inhibitor, single point]. For Cc1cccc(NC(=S)N/C(=N/S(=O)(=O)c2ccccc2)c2ccccc2)c1, the Potency was “inactive”. For CN(c1ccccc1)S(=O)(=O)c1ccc(C(=O)OCC(=O)NCc2cccs2)cc1, the Potency was inconclusive [inhibitor, single point]. For O=C(NS(=O)(=O)c1ccc2ccc(S(=O)(=O)NCCSc3ccccc3)cc2c1)c1cccc2ccccc12, the Potency was “inactive”. With CCCn1c(SCC(=O)NCCc2ccccc2)nnc1-c1ccccn1 the Potency was inconclusive [inhibitor, single point]. For Cc1c(NC(=O)C2CCCCC2)cc(C(=O)N2CCOCC2)cc1[N+](=O)[O-], the Potency was “inactive”. In the case of CCCCCCC(C)n1[nH]c(=O)c2c(C)cc(=O)[nH]c21 (stereo unspecified), the Potency was inconclusive [inhibitor, partial curve]. For Cc1ccc2nc3c(c(Nc4ccc5c(c4)OCCO5)c2c1)CCC3, the Potency was active: 16.4 µM. For COc1ccc(Nc2cc(C)nc3ncnn23)c(OC)c1, the Potency was “inactive”. For CC(CCC(=O)NN)C1CCC2C3CCC4CC(O)CCC4(C)C3CCC12C (stereo unspecified), the Potency was “inactive”. With O=C(Nc1ccc(F)c(Cl)c1)c1cc(C2CCCCN2C(=O)c2ccc3c(c2)CCO3)on1 (stereo unspecified) the Potency was active: 16.4 µM. In the case of Cn1cc(C(=O)NCc2ccc(Cl)cc2)c(=O)c2cc(S(=O)(=O)N3CCCCCC3)ccc21, the Potency was inconclusive [inhibitor, single point]. In the case of CCOc1cccc2sc(=NC(=O)c3ccco3)n(CC(=O)OC)c12, the Potency was inconclusive [inhibitor, single point]. For COc1ccc(-c2cn(-c3ccc(OC)cc3)c3[n+]2-c2ccccc2CC3)cc1, the Potency was active: 0.259 µM. In the case of CN(C)CCCn1c(=O)n(Cc2ccco2)c(=O)c2c3c(sc21)CCCCC3, the Potency was inconclusive [inhibitor, single point]. In the case of COC(=O)C1CCN(C(=O)c2cc3c(=O)n4cccc(C)c4nc3n2Cc2ccccc2)CC1, the Potency was inconclusive [inhibitor, partial curve]. In the case of CC(N=C1NS(=O)(=O)c2ccccc21)C(=O)NCc1ccncc1 (stereo unspecified), the Potency was “inactive”. For COc1ccc(Cc2nnc(SCC(=O)c3cccc([N+](=O)[O-])c3)n2C)cc1, the activity change, negative = growth inhibition was inconclusive: -32.1% [inhibitor]. In the case of Cn1c(=O)c2[nH]c(C(O)c3ccc(Cl)cc3)nc2n(C)c1=O (stereo unspecified), the Potency was inconclusive [inhibitor, single point]. In the case of O=C(CCC(=O)c1cccs1)OCC(=O)c1ccccc1F, the Potency was “inactive”. With CC(C)(C)c1nnc(SCC(=O)c2ccccc2)n(N)c1=O the Potency was inconclusive [inhibitor, partial curve, poor fit]. With COc1ccc(-c2ccnc3nc(N4CCN(c5ccccc5)CC4)nn23)cc1 the Potency was inconclusive [inhibitor, single point]. With FCCCOc1ccc(-c2nccc(-c3ccc(Br)cc3)n2)cc1 the Potency was inconclusive [inhibitor, partial curve]. In the case of Brc1cc2ccccc2[n+](Cc2ccccc2)c1, the Potency was inconclusive [inhibitor, single point]. In the case of CC(C)C(=O)NC(=S)Nc1ccc(S(=O)(=O)N(C)Cc2ccccc2)cc1, the Potency was inconclusive [inhibitor, single point]. For CCOc1ccc(CN(C)C(=O)[C@H](C)NC(=O)c2ccco2)cc1OC, the Potency was “inactive”. For CCCNC(=O)C1(C)CCCN(C(=O)c2cc(C)n(C(C)(C)C)n2)C1 (stereo unspecified), the Potency was inconclusive [inhibitor, single point]. With COc1ccc(C2Nc3ccccc3C(=O)N2Cc2ccco2)cc1 (stereo unspecified) the Potency was inconclusive [inhibitor, single point]. For Cc1ccc(NS(=O)(=O)c2cccc(C(=O)NNC(=O)c3cccn3C)c2)c(C)c1, the Potency was “inactive”. With O=C(CN(C(=O)CCC(=O)Nc1nccs1)c1ccccc1F)NCc1ccc2c(c1)OCO2 the Potency was “inactive”. For O=S(=O)(c1ccccc1)N1CCC2(CC1)CN(c1ccncc1)C2, the Potency was inconclusive [inhibitor, single point]. In the case of O=C(CCOc1ccccc1)Nc1ccnn1C1CCN(Cc2ccc(F)cc2)CC1, the Potency was “inactive”. With Cc1ccc(-c2noc(CCC(=O)NCCN3CCN(Cc4ccccc4)CC3)n2)cc1 the Potency was inconclusive [inhibitor, single point]. In the case of COc1cccc(C(=O)Nc2cc3cc(OC)ccc3oc2=O)c1, the Potency was “inactive”. For CCOC(=O)c1nc(C)nc(Sc2n[nH]c(-c3ccc(C(C)(C)C)cc3)n2)c1C, the Potency was inconclusive [inhibitor, single point]. With COc1cc(CNCCN2CCOCC2)ccc1OCc1ccccc1Cl the Potency was inconclusive [inhibitor, single point]. For Cc1ccc(NC(=O)CCNCc2ccco2)cc1S(=O)(=O)N(C)C, the Potency was “inactive”. For O=Cc1ccnc(-c2ccc(OC(=O)c3ccco3)cc2)n1, the Potency was active: 5.17 µM. With CCCS(=O)(=O)N1CCC(CCOc2ccccc2)(C(=O)OCC)CC1 the Potency was inconclusive [inhibitor, single point]. In the case of CCOc1ccc(CN(C)CC(=O)Nc2cccc3ccccc23)cc1OC, the Potency was inconclusive [inhibitor, single point]. In the case of S=C(Nc1ccc(OCc2ccccc2)cc1)Nc1cccc(Cl)c1Cl, the Potency was inconclusive [inhibitor, partial curve, poor fit]. For COc1ccc(/C=C2/CCCc3ccccc3C2=O)cc1, the Potency was active: 5.8 µM. In the case of Cc1ccc(S(=O)(=O)NCCC(c2ccccc2)c2ccccc2)cc1C(=O)O, the Potency was “inactive”. With O=C1N(c2ccc(Cl)c(Cl)c2)CN(Cc2ccccc2)CN1n1cnnc1 the Potency was inconclusive [inhibitor, single point]. In the case of O=C(c1ccccc1)N1CCCCC1, the Potency was “inactive”. With Cc1ccc(S(=O)(=O)N(CC(=O)NC2CC2)c2ccc(C)c(Cl)c2)cc1 the Potency was “inactive”. With Cn1c(=O)n(Cc2ccccc2)c(=O)c2c1nc1n2CCCN1Cc1ccccc1 the Potency was inconclusive [inhibitor, partial curve]. With CN1CCC(OC(=O)c2cc3cc(Br)ccc3oc2=O)CC1 the Potency was “inactive”. With O=C(CCC1CCN(C(=O)CC2=CCCCC2)CC1)NCc1ccc(F)cc1 the Potency was inconclusive [inhibitor, single point]. In the case of COc1ccc(-c2cnc(SCCNC(=O)c3ccc4c(c3)OCO4)[nH]2)cc1, the Potency was “inactive”. In the case of COc1ccc(NC(=O)C2=CC(c3ccc(OC)c(OC)c3)=NS(=O)(=O)N2C)cc1, the Potency was active: 23.1 µM. With O=C1C2C(C(=O)N1/N=C/c1ccc(N3CCCCC3)o1)C1C=CC2C12CC2 (stereo unspecified) the Potency was active: 18.4 µM. With COc1ccc(-n2c(CN3CCN(c4ccc(F)cc4)CC3)nc3ccc([N+](=O)[O-])cc3c2=O)c(OC)c1 the Potency was inconclusive [inhibitor, single point]. With CCOc1ccccc1NC(=O)CSc1cn[nH]n1 the Potency was “inactive”. With COc1ccc(CN(C)CC(=O)Nc2cccc(S(=O)(=O)N(C)c3ccccc3)c2)c(OC)c1 the Potency was inconclusive [inhibitor, single point]. In the case of CCOC(=O)C1(Cc2cccc(OC)c2)CCCN(C(=O)CSC)C1 (stereo unspecified), the Potency was inconclusive [inhibitor, partial curve, poor fit].
